# According to the supplement of paper PMC3334620:
# The full ranking holds about 33,000 sequences; the median of “E-score (-0.5 to 0.5)” is about -0.036, and the highest 2% start at about 0.37. This is one part of the list.
# Target: T1, Yer064c (UniProt P40041)
# T1 sequence: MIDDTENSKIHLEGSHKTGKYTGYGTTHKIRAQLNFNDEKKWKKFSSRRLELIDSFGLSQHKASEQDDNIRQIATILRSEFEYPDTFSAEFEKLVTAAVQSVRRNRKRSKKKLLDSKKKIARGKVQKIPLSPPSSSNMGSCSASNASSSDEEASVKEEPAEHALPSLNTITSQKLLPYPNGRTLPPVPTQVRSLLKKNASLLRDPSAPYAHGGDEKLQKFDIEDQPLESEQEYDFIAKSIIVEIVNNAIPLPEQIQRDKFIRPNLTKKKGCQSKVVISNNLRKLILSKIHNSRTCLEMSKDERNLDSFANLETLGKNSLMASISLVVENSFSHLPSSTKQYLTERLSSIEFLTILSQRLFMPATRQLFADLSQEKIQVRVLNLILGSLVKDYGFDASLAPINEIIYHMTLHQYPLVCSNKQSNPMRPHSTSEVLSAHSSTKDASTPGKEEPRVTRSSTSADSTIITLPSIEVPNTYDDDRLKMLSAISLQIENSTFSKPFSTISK
# Assay: PBM E-score (8-mer binding enrichment) (E-score (-0.5 to 0.5)); higher = stronger / more preferred TF binding; most listed sequences are background and not binding sites
# Details: protein concentration: 200 nM; construct: GST-full length
# Procedure, shortened: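 Bound GST-tagged yeast transcription factors, applied at about 100-200 nM to double-stranded universal all-10-mer Agilent arrays, were detected with fluorescent anti-GST. Scans were normalised with masliner. A modified Wilcoxon-Mann-Whitney statistic, the E-score, was assigned to each ungapped eight-base word pooled with its reverse complement by the Universal PBM Analysis Suite.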
row,Sequence,PBM E-score
1,AATATTAA,0.0521
2,AGCCTAAT,-0.0714
3,GACGTACC,-0.142
4,CTTTCGTA,-0.053
5,ACGCTAGG,-0.0312
6,GCCAGGCA,-0.226
7,GTATGATA,0.0434
8,CACCCTTA,0.00989
9,ACGTCAAA,0.0154
10,AAGCTTGG,-0.0782
11,ACGCCATG,-0.0708
12,AACCACCT,0.0325
13,CGCTGGTA,-0.0555
14,AGGAGGAA,-0.137
15,AACGATCG,0.0139
16,ATACTGGG,-0.108
17,AACTAGTC,0.355
18,ACCCAAGT,-0.00665
19,AGCGTGAC,0.209
20,CAGGAACC,-0.168
21,CTCTTCCC,-0.152
22,CACGTCAA,0.155
23,AATTGGTC,-0.0619
24,AGATCTAT,0.0269

row,Sequence,PBM E-score
1,ATATCCAT,-0.136
2,AGGGGTCC,-0.223
3,ACCGTTTG,-0.0394
4,TGAGCGCA,-0.173
5,CGCCCAGA,-0.205
6,AGGGCCCC,-0.0403
7,CCTGGCGA,-0.211
8,TACCGTCA,-0.251
9,AAAGTTGC,-0.226
10,TAGCTCAA,0.0744
11,AAGGGGGA,-0.255
12,AGGTCTTG,-0.184
13,TGGCAACA,-0.164
14,CGGAGGAA,-0.234
15,ATTGTATA,0.0405
16,AATCCAGT,0.0306
17,CAACAGGC,-0.111
18,CCTTAGGA,0.0314
19,TATTTCAA,0.128
20,CGATCATC,0.0321
21,TTGCACAA,-0.00909
22,AGGCTAGG,-0.237
23,AAGGCGGT,-0.00732
24,AGCATGTG,-0.137

row,Sequence,PBM E-score
1,CATGATGA,0.261
2,TACGCGAA,-0.0629
3,AAGTATCG,-0.0984
4,CCGCTAAA,-0.152
5,CCCAGCCC,-0.256
6,GGATCCAA,-0.126
7,CGCGGAAG,-0.0164
8,GCATTGCC,-0.271
9,GGAACGTA,-0.231
10,AATAGTTC,-0.0167
11,ACCGGTGC,0.0386
12,AATAACTC,0.15
13,GCATCCCC,-0.265
14,ACGTGTAG,-0.0603
15,ACCACGTG,-0.123
16,AACGGGAA,-0.137
17,GCATACAA,-0.207
18,GGACTCTA,0.193
19,ACGGCGAG,0.0206
20,ATATCGGG,-0.0749
21,TCAAATGA,0.236
22,AATGAAGT,0.166
23,GAATAAAA,-0.00317
24,CGTCGGTA,-0.123

row,Sequence,PBM E-score
1,AGTCACCC,0.479
2,AGGGCAGC,0.0303
3,AAACATGG,0.0755
4,ATGCACAA,0.0625
5,TCCTAAGA,-0.00633
6,GTTGTAAA,0.1
7,ATATGATG,0.0154
8,GCTTGATA,-0.101
9,ACCAGCGC,-0.221
10,TGTGATAA,0.199
11,AAGTGCAA,-0.0297
12,TGATTCAA,0.466
13,CACATGGA,0.0811
14,CAACCGGG,-0.193
15,ATGAATAC,0.13
16,TCGCCCAA,-0.079
17,ACGCGCGG,-0.0883
18,ACAATCGA,0.0432
19,ACAAAGTG,-0.0222
20,TATACTGA,0.228
21,CTCATAGA,0.155
22,AGATAATG,-0.0327
23,CGTTTGCC,-0.0968
24,GCCATCGC,-0.108

row,Sequence,PBM E-score
1,ATGAGGAC,-0.0901
2,CACGCCGG,-0.036
3,TGAAAAAA,0.104
4,ATTATTAA,0.168
5,GCATCACC,-0.165
6,TTCCTAAA,0.0987
7,GGTGACAA,-0.0376
8,AGAAGTCC,-0.056
9,CCGGCCGG,-0.13
10,CTGAACGC,-0.149
11,CAATACGC,-0.135
12,AGGTGAGG,-0.0178
13,CCCGGCAA,-0.166
14,GCCCTGCC,-0.34
15,AGCGCGCT,-0.292
16,GCTTGCCA,-0.134
17,TCGGCGAA,0.0541
18,ACTACTAG,0.14
19,AGGTATTA,-0.00014
20,ATTAAGTC,0.317
21,CATAATCG,0.109
22,AAGAGGTG,-0.114
23,CTACCGCA,-0.00712
24,ACTCTAAA,0.267

row,Sequence,PBM E-score
1,CTGAAGTC,0.278
2,CAAGAACA,-0.0972
3,ATCTCCGC,-0.0564
4,GGTATGTA,-0.0863
5,ACCCATCT,0.182
6,CCACTTGC,-0.243
7,CTCCGAAA,-0.0419
8,CGCAAAGC,-0.278
9,ACGAGGGA,-0.239
10,GAGATGGA,-0.0342
11,CGTCGGAA,-0.162
12,AAATGAAA,0.128
13,AGGCTTAA,0.0942
14,CGACTCGA,0.361
15,AGCCCATA,0.0485
16,GACTGTGA,0.341
17,GGCCGCCA,-0.119
18,CCATCTCC,-0.0237
19,AGCTCTTA,-0.133
20,CTAGATGC,-0.103
21,AGGATTCC,0.0611
22,AGGAACCT,-0.132
23,ATAGGCAA,-0.0944
24,ACTCGCTC,0.287

row,Sequence,PBM E-score
1,ATGTTATA,-0.0918
2,CTCAGGAA,0.0377
3,GATTAGGA,0.171
4,TTAAGCAA,0.0137
5,CTGAGACA,0.351
6,AGTTTAAG,0.178
7,CCGCGTTA,-0.0952
8,ATCCAGTG,0.0898
9,ACGTCGGG,-0.327
10,GCCGGACA,-0.139
11,CTCCTGGA,-0.0118
12,GCGCTCGA,-0.0795
13,TAATTCTA,0.00914
14,AGATAGTC,0.403
15,ATTCATCC,0.119
16,AAAAGGTT,-0.0197
17,CAGTGATC,0.0804
18,CCCTGAGG,-0.17
19,CCATAATA,0.0678
20,TCTAGAGA,-0.0362
21,CGTATTAG,0.11
22,ATGTCGGA,-0.0825
23,GAATTACA,-0.0397
24,GCGGGAAA,-0.147

row,Sequence,PBM E-score
1,AGATCGAA,0.0949
2,CTCTCGCC,-0.26
3,GGCTGAAA,-0.0505
4,AGTGGCCG,-0.255
5,CGTGACCC,0.0177
6,GTTTCTTA,0.086
7,CCCATCGC,0.0146
8,ACGGTTAT,-0.219
9,CAATGAGA,0.0849
10,ACCGTCCT,-0.281
11,CCTTGGAG,-0.04
12,AGGTAGTG,-0.0767
13,AAATTGGA,0.0087
14,ACCAGGTA,-0.247
15,AACGATTG,0.0264
16,GAGAAACA,0.028
17,CGGAGGGA,-0.246
18,GCAGCGGC,-0.113
19,AAAGCCGC,-0.0734
20,CGGCCAAC,-0.0648
21,ATCCCTAA,-0.121
22,GAGTGTGA,0.224
23,CACACGTA,0.00361
24,CCGTTGCG,-0.156
